Hit rate of the full screen: of about 220,000 compounds, about 2,300 (1%) were called active. The shares of active, inactive and inconclusive entries below differ from those in the screen. Calls come from the whole dose curve; as a rule, active = well fitted inhibition curve with a large enough effect; inconclusive = small, poorly fitted or top-dose-only effect, or effect the other way; inactive = no such curve, though single readings can be large or run the other way. A potency beside an inconclusive call is a rough fit, not a confirmed value.
What follows are molecules tested against Neuropeptide S receptor (Homo sapiens) (UniProt Q6W5P4) (assay: qHTS Assay for Antagonists of the Neuropeptide S Receptor: cAMP Signal Transduction). Settings: CHO-NPSR cells, cAMP TR-FRET, antagonist mode; activity change, negative = inhibition: at 38.3 µM (top of the series) unless noted.
Sequence of UniProt Q6W5P4 (Q6W5P4 whole entry, looked up): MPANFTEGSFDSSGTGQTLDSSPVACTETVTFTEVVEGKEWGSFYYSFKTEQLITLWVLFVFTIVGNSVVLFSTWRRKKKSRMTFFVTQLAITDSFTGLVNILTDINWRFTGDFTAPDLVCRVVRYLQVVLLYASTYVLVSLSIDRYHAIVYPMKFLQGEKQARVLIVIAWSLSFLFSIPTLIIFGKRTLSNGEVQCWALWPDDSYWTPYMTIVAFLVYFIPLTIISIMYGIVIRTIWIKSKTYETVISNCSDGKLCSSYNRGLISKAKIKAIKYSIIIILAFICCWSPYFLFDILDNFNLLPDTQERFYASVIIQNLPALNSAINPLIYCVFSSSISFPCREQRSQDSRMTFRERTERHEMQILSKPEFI
% is set by controls: 0 for no effect and ±100 for the full control effect; potency is the fitted concentration of half-maximal effect; tags give direction and shape of the fitted curve.
Note: nearly all actives have a fitted effect of over 50% in size.

Compound	Potency	activity change, negative = inhibition
CN1CCc2cc(O)cc3c2C1Cc1ccc(O)c(O)c1-3 (configuration not stated)	inconclusive: 10 µM [inhibitor, partial curve]	
CN1C(=O)C(=Cc2ccccc2OCc2ccc(Cl)cc2)C(=O)N(C)C1=O		inactive: -29.1%
CCCN1CCC[C@@H](c2cccc(C#N)c2)C1	inconclusive: 25.1 µM [activator, single point]	
Cc1sc2c(c1C)C(c1ccc(C(C)(C)C)cc1)=NCC(=O)N2CC(=O)Nc1nccs1	inconclusive: 10 µM [inhibitor, partial curve]	
Cn1cc[n+](C)c1P(=S)(c1ccccc1)c1ccccc1	active: 5.01 µM	
COc1ccc(CC2c3cc(OC)c(OC)cc3CCN2C)cc1O (configuration not stated)		inactive: 10.4%
CCCC(c1nnnn1Cc1cccs1)N1CCN(c2nc3ccccc3s2)CC1 (configuration not stated)	inconclusive: 2 µM [inhibitor, full curve]	
C=C(C=O)C[C@@H]1C[C@H](O)C2OC3C[C@]4(C)OC5/C=C\CC6OC7C(CC=CCC6OC5CCCC4OC3CC2O1)OC1CC2OC3CC(=O)OC3C[C@@H](C)C[C@@]2(C)OC1C[C@@H]7C (some centres not stated)	active: 0.794 µM	
O=C(/C=C/c1c[nH]c2ccccc12)c1c(O)n(CCc2ccccc2)c(=O)[nH]c1=O	inconclusive: 0.501 µM [activator, full curve, poor fit]	
Cc1ccc(-n2c(O)c(C=Nc3ccc(S(N)(=O)=O)cc3)c(=O)[nH]c2=O)cc1		inactive: 14%
O=C1NC(=O)C2(Cc3c(nc4ccccn4c3=O)N3CCCCCC32)C(=O)N1Cc1ccccc1 (configuration not stated)	inconclusive: 10 µM [inhibitor, single point]	
CCN(CC)C(=O)c1ccc(NC(=O)CSc2nnnn2-c2cc(OC)ccc2OC)cc1		inactive: -12.6% [at 46.1 µM]
CCCc1[nH]nc2c1C(c1ccc(OC)c(Cn3nnc4ccccc43)c1)C(C#N)=C(N)O2 (configuration not stated)	inconclusive: 10 µM [inhibitor, partial curve]	
C=CCN1C(=O)C2(C(C(=O)OCC)=C(N)Oc3c2c(=O)oc2ccccc32)c2ccccc21 (configuration not stated)	inconclusive: 20 µM [inhibitor, single point]	
CCCOP(=O)(OCCC)C(Nc1cccc(C(F)(F)F)c1)c1ccc(C)cc1 (configuration not stated)	inconclusive: 7.94 µM [inhibitor, partial curve]	
CC(C)(O)[C@H]1O[C@H]2CC[C@@]3(C)[C@@](O)(CC[C@H]4Cc5c([nH]c6ccccc56)[C@@]43C)C2=CC1=O	inconclusive: 10 µM [inhibitor, single point]	
NCCc1c[nH]c2ccc(OCc3ccccc3)cc12		inactive: 11.7%
CCNCCNc1ccc([N+](=O)[O-])c2cccnc12	inconclusive: 12.6 µM [activator, partial curve]	
COc1ccc(C2CN(C)CC2C(=O)c2ccc(F)cc2)cc1Cl (configuration not stated)		inactive: -4.23%
O=P(OC1CCCCC1)(OC1CCCCC1)C(O)c1ccc(Cl)cc1Cl (configuration not stated)	inconclusive: 31.6 µM [inhibitor, partial curve, poor fit]	
CCOP(=O)(OCC)C(Nc1cccc(C(F)(F)F)c1)c1ccc(Br)cc1 (configuration not stated)	inconclusive: 12.6 µM [inhibitor, single point]	

Compound	Potency	activity change, negative = inhibition
CCn1c(C)cc(/C=C2\C(=O)NC(=O)N(c3ccccc3C)C2=O)c1C		inactive: -18.4%
Cc1cc(OCC(=O)OC(C)C)c2c3c(c(=O)oc2c1)CCCC3	inconclusive: 10 µM [inhibitor, partial curve]	
CCCCCSc1cc(OC)c(CCN(C)C)cc1OC	inconclusive: 25.1 µM [inhibitor, single point]	
CNc1cc(Cl)c2nonc2c1[N+](=O)[O-]	active: 10 µM	
N#Cc1ccccc1Cn1cc(C(=O)c2ccco2)c2ccccc21	inconclusive: 12.6 µM [inhibitor, partial curve]	
N=C(N)c1c(O)n(C2CCCCC2)c(=O)n(C2CCCCC2)c1=O	active: 10 µM	
CCC(=Nc1ccc(OC)cc1OC)c1c(O)n(C2CCCCC2)c(=O)[nH]c1=O	inconclusive: 15.8 µM [inhibitor, partial curve, poor fit]	
CC(C)CN(CC(C)C)c1ccc(C=C2C(=O)NC(=S)NC2=O)cc1[N+](=O)[O-]	inconclusive: 3.98 µM [inhibitor, full curve]	
CCCN(CCC)C(=O)Cc1c(-c2ccc(Cl)cc2)nc2c(Cl)cc(Cl)cn12	inconclusive: 31.6 µM [activator, single point]	
O=c1[nH]c(=O)n(Cc2ccco2)c(O)c1C=NC1CC1		inactive: 10.5% [at 7.67 µM]
CCN(CC)CCCN=Cc1c(O)n(CCc2ccc(F)cc2)c(=O)[nH]c1=O	inconclusive: 0.1 µM [inhibitor, partial curve, poor fit]	
CCOP(=O)(OCC)c1nc(-c2cccc3ccccc23)oc1NCc1ccccc1	inconclusive: 10 µM [inhibitor, single point]	
CCc1ccc(CN2CCN(C(=O)Cc3ccccc3)CC2)cc1		inactive: -1.2%
C=CCn1c(O)c(C(C)=O)c(=O)[nH]c1=O (tested in a mixture with another compound)	inconclusive: 25.1 µM [activator, single point]	
CC1=CC2/C=C(\C)CCC(O)C(O)/C=C/C(=O)C23C(=O)NC(CC(C)C)C3C1C (configuration not stated)	inconclusive: 10 µM [activator, single point]	
O=C(CNC(=O)c1ccccc1Cl)Nc1ccc(Br)cc1C(=O)c1ccccc1		inactive: -23.7%
CC(=O)c1ccc2c(c1)C1C(Cl)C(Sc3ccccc3[N+](=O)[O-])CC1C(c1ccccc1)N2 (configuration not stated)	inconclusive: 10 µM [inhibitor, partial curve]	
COC[C@H]1OC(=O)c2coc3c2[C@@]1(C)C1=C(C3=O)C2CCC(=O)[C@@]2(C)C[C@H]1OC(C)=O (some centres not stated)	inconclusive: 10 µM [activator, partial curve]	
CCS(=O)(=O)N1Cc2ccccc2CC1C(=O)NCC12CC3CC(CC(C3)C1)C2 (configuration not stated)	inconclusive: 12.6 µM [inhibitor, single point]	
COc1cc(CN=Cc2c(O)n(Cc3ccccc3)c(=S)[nH]c2=O)cc(OC)c1	inconclusive: 15.8 µM [inhibitor, single point]	
COc1cc(/C=N/NP(=S)(c2ccccc2)c2ccccc2)ccc1O	inconclusive: 12.6 µM [inhibitor, single point]	

Compound	Potency	activity change, negative = inhibition
C[C@@H]1O[C@H](C[N+](C)(C)C)CS1	inconclusive: 6.31 µM [inhibitor, single point]	
c1ccc2c(c1)CNc1ccccc1O2	inconclusive: 20 µM [activator, single point]	
CC(=O)c1cccc(OCC(O)CN2CC=C(c3ccccc3)CC2)c1 (configuration not stated)		inconclusive: -34% [inhibitor] [at 46.1 µM]
Cc1ccccc1-n1c(O)c(C=Nc2ccc(N(C)C)cc2)c(=O)[nH]c1=O	inconclusive: 15.8 µM [inhibitor, partial curve]	
O=c1c(C=NCc2cccs2)c(O)n(C2CCCCC2)c(=O)n1C1CCCCC1	inconclusive: 10 µM [inhibitor, single point]	
CCCCCCC(C)(C)c1ccc([C@@H]2C[C@H](O)CC[C@H]2CCCO)c(O)c1	inconclusive: 12.6 µM [inhibitor, single point]	
O=C(Nc1nccs1)c1c(O)c2c(n(Cc3ccco3)c1=O)CCCC2	inconclusive: 12.6 µM [activator, partial curve]	
CN1C2CCC1CC(OC(c1ccccc1)c1ccc(Cl)cc1)C2 (configuration not stated)	inconclusive: 0.316 µM [inhibitor, full curve, poor fit]	
CCCn1c(=O)c2[nH]c(C3CCCC3)nc2n(CCCOC(=O)c2ccc(S(=O)(=O)F)cc2)c1=O	inconclusive: 6.31 µM [inhibitor, full curve, poor fit]	
C=CCN1CC[C@]23c4c5ccc(O)c4O[C@@H]2/C(=N/N=C2\CC[C@@]4(O)C6Cc7ccc(O)c8c7[C@@]4(CCN6CC=C)[C@@H]2O8)CC[C@@]3(O)C1C5	inconclusive: 12.6 µM [inhibitor, partial curve]	
Cc1nc2ccccn2c1P(=S)(N1CCCCC1)N1CCCCC1	inconclusive: 31.6 µM [inhibitor, partial curve]	
COC(=O)C(C)Oc1cc(C)cc2oc(=O)c3c(c12)CCC3 (configuration not stated)	inconclusive: 10 µM [inhibitor, partial curve, poor fit]	
CN1/C(=C\C=Nc2ccccc2)C(C)(C)c2ccccc21	inconclusive: 10 µM [inhibitor, single point]	
CCC1(C2=NCCN2)Cc2ccccc2O1 (configuration not stated)	inconclusive: 5.01 µM [activator, single point]	
NC(N)=Nc1ccc2[nH]c3c(c2c1)C[C@@]1(O)[C@H]2Cc4ccc(O)c5c4[C@@]1(CCN2CC1CC1)[C@H]3O5	inconclusive: 12.6 µM [inhibitor, partial curve]	
CCOP(=O)(OCC)C(NCc1ccccc1)c1ccc(Br)cc1 (configuration not stated)	inconclusive: 12.6 µM [inhibitor, single point]	
CCN(CC)c1ccc(/C=C2/C(=O)NC(=O)N(Cc3ccco3)C2=O)cc1	inconclusive: 10 µM [inhibitor, single point]	
Cc1ccc(NP(=O)(Oc2ccccc2F)Oc2ccccc2F)cc1C	inconclusive: 10 µM [inhibitor, single point]	
O=C(O)c1nn(Cc2ccc(Cl)cc2Cl)c2ccccc12	inconclusive: 3.16 µM [inhibitor, single point]	
CCn1nc(-c2ccccc2)nc2c(=O)n(C)c(=O)nc1-2	active: 3.98 µM	

From PubChem BioAssay AID1461 (National Center for Advancing Translational Sciences (NCATS), 2008)
